According to the RNAGym collection of RNA variant scans (doi:10.7554/elife.90254):
Read counts are not given, so values of variants with three or more changes are uncertain.

B1: LINE1-mini (parent)
chain: GGCAGAGCUCAACACAGCGUGGCAAAGUGGCUGUGGCUAGACUGCC

Variants of: B1
Assay: self-cleavage, relative activity (ratio to wild type); higher = more cleavage; in vitro, sequencing; the parent is a self-cleaving ribozyme

Row | Variant | self-cleavage
1 | G5U C15U A16U | 0.07
2 | G5U C15U A41G | 0.2
3 | G5U C15U C46G | 0.19
4 | G5U C15U G22A C37A | 0.01
5 | G5U C15U G29A | 0.05
6 | G5U C15U G29A G35C C45U | 0.06
7 | G5U C18A C31U G40U | 0.01
8 | G5U C18A C37U | 0.02
9 | G5U C18A C42U | 0.03
10 | G5U C18A G27C G30C | 0.02
11 | G5U C18A G36C C37A C46U | 0
12 | G5U C18G A41C | 0.02
13 | G5U C18G C31G U34G G36C | 0.04
14 | G5U C18G C46G | 0.03
15 | G5U C18G G30A C37U | 0.07
16 | G5U C18G G44A | 0.04
17 | G5U C18U A24G A25C G36C | 0
18 | G5U C18U A39G | 0.04
19 | G5U C18U G19C G21A G29U C31G C37A | 0.12
20 | G5U C18U G21A U28G G40U C42U U43C | 0.05
21 | G5U C18U G29U | 0.04
22 | G5U C18U G36U A39G | 0
23 | G5U C18U G44U | 0.02
24 | G5U C18U U34C | 0.05

Row | Variant | self-cleavage
25 | G5U C18U U34G A39U | 0.01
26 | G5U C18U U38C G44A | 0.02
27 | G5U C23A A25G | 0.02
28 | G5U C23A A41G | 0.35
29 | G5U C23A G36U C42A | 0.03
30 | G5U C23G C31U U32A | 0.09
31 | G5U C23G G30U G33U C37G | 0.01
32 | G5U C31A C45G | 0.03
33 | G5U C31A G36U | 0.05
34 | G5U C31A G40U | 0.02
35 | G5U C31A U34G | 0.05
36 | G5U C31G C42G | 0.04
37 | G5U C31G C42U | 0.01
38 | G5U C31U G33C | 0.02
39 | G5U C31U U34G | 0.01
40 | G5U C31U U38G U43G C45U | 0.02
41 | G5U C37G U38C | 0
42 | G5U C42A C46A | 0.04
43 | G5U G7A A25U | 0.65
44 | G5U G7A C8G C13U C15G U32A A39U | 0.01
45 | G5U G7A C8U G27A | 0.24
46 | G5U G7A C15U G17A G19A | 0.03
47 | G5U G7A C18U C31G | 0.05
48 | G5U G7A G17A G19C U43A | 0.04

Row | Variant | self-cleavage
49 | G5U G7A G17C | 0.21
50 | G5U G7A G27U | 0.47
51 | G5U G7A G29C A41G | 0.1
52 | G5U G7A G29U | 0.08
53 | G5U G7A G35U U38G | 0.01
54 | G5U G7A U9C G21A | 0.05
55 | G5U G7C A11U G21A U32C | 0.01
56 | G5U G7C A12G G36U | 0.01
57 | G5U G7C A14G C15A | 0.11
58 | G5U G7C A26U | 0.12
59 | G5U G7C C8G | 0.43
60 | G5U G7C C8G G17C | 0.17
61 | G5U G7C C10A A24C | 0
62 | G5U G7C C45A | 0.22
63 | G5U G7C U28G G30U | 0.13
64 | G5U G7U A14C C37U C45U | 0.02
65 | G5U G7U A16G | 0.07
66 | G5U G7U A26U | 0.03
67 | G5U G7U C8G C13U | 0.33
68 | G5U G7U C10G A41C G44A | 0.03
69 | G5U G7U C10U A26C U43A | 0.08
70 | G5U G7U C13A U43C | 0.13
71 | G5U G7U C37U | 0.03
72 | G5U G7U G17C | 0.11

Row | Variant | self-cleavage
73 | G5U G7U G19A G21A G36C U43A | 0.15
74 | G5U G7U G21A G30U | 1.52
75 | G5U G7U G29C G36A C37G | 0.03
76 | G5U G7U G30A G36C | 0.06
77 | G5U G7U G30U C31A | 0.4
78 | G5U G17A C31U U32A U34A | 0.03
79 | G5U G17A C37A | 0.03
80 | G5U G17A C42U | 0.04
81 | G5U G17A G35A | 0.03
82 | G5U G17A G35U G44U | 0.02
83 | G5U G17C A24U | 0.05
84 | G5U G17C C37A A41C | 0.02
85 | G5U G17C G19U A26G | 0
86 | G5U G17C G33U | 0.05
87 | G5U G17C U20C C45A | 0.02
88 | G5U G17U C18U G29U | 0.02
89 | G5U G17U G19A G27A U43G | 0.05
90 | G5U G17U G29U U34G | 0.11
91 | G5U G17U G30A U32G | 0.02
92 | G5U G19A A25C | 0.01
93 | G5U G19A G36A | 0.16
94 | G5U G19C C46A | 0.05
95 | G5U G19C G21C C42A C46U | 0.03
96 | G5U G19C U20A A24U | 0

Row | Variant | self-cleavage
97 | G5U G19U A25C C31A | 0.01
98 | G5U G19U C45A | 0.27
99 | G5U G19U C46A | 0.07
100 | G5U G19U C46G | 0.03
101 | G5U G19U G21U | 0.05
102 | G5U G19U G22C U38G | 0.01
103 | G5U G19U G36U C46U | 0.01
104 | G5U G19U U28C | 0.3
105 | G5U G21A G30A G33C | 0.36
106 | G5U G21A G35C | 0.06
107 | G5U G21A G44A | 0.25
108 | G5U G21A U28A G30U A39U | 0.05
109 | G5U G21C A24U | 0.03
110 | G5U G21C A26G C42U | 0.02
111 | G5U G21C A26U A39C | 0.01
112 | G5U G21C A41G | 0.06
113 | G5U G21C A41G C46A | 0.15
114 | G5U G21C C42U | 0.09
115 | G5U G21C G22C U28A | 0.03
116 | G5U G21C G30A | 0.06
117 | G5U G21C G30C U32A C45A | 0.04
118 | G5U G21C G40U | 0.04
119 | G5U G21C U32C | 0.05
120 | G5U G21U A26U A39G G40U | 0.2

Row | Variant | self-cleavage
121 | G5U G21U C23A U28C | 0.02
122 | G5U G21U C31A U34G | 0.02
123 | G5U G21U C37G A41U | 0.07
124 | G5U G21U C37G C46U | 0.26
125 | G5U G21U G33C | 0.02
126 | G5U G21U G33U C37U | 0.03
127 | G5U G21U G40U G44U | 0
128 | G5U G21U U32G | 0.03
129 | G5U G21U U32G A41G | 0.02
130 | G5U G21U U32G C42A | 0.05
131 | G5U G22A G30C | 0.04
132 | G5U G22A G30U C37G | 0.08
133 | G5U G22A G36C | 0.05
134 | G5U G22C A41U | 0.04
135 | G5U G22C U43C | 0.09
136 | G5U G22U A24G C31U C37U | 0.01
137 | G5U G22U A39U | 0.05
138 | G5U G22U C42U | 0.15
139 | G5U G22U G27C G33A | 0.14
140 | G5U G22U G29U A39U | 0.2
141 | G5U G22U U28C | 0.04
142 | G5U G22U U38A | 0.07
143 | G5U G27A C45U | 0.06
144 | G5U G27A G35A C37G | 0.03

Row | Variant | self-cleavage
145 | G5U G27A G35C | 0.03
146 | G5U G27C A39U | 0.02
147 | G5U G27C G30C C37U G40A | 0.26
148 | G5U G27C G33C G44U | 0.11
149 | G5U G27C U32G | 0.02
150 | G5U G27C U43C C46A | 0.01
151 | G5U G27U A41U | 0.04
152 | G5U G27U G30C A39G | 0.06
153 | G5U G27U G30U G40U | 0.01
154 | G5U G29A C31A G35A A39U | 0.07
155 | G5U G29A C37A | 0.01
156 | G5U G29A C37G C42A | 0.01
157 | G5U G29A C45G | 0.02
158 | G5U G29A G36C | 0.04
159 | G5U G29C A41U | 0.03
160 | G5U G29U C37A C45U | 0.02
161 | G5U G29U G35U | 0.05
162 | G5U G29U G40A | 0.06
163 | G5U G29U U32G | 0.05
164 | G5U G29U U34A | 0.05
165 | G5U G29U U34G | 0.16
166 | G5U G29U U38A C46G | 0.17
167 | G5U G30A G35A | 0.07
